The list shows a part of the results.

One assay has as its system HSkMC. Put plainly: cytotoxicity call (relative viability < 0.9). Particulars: 10 µM.
The next assay has as its system HepG2. Put plainly: cytotoxicity call (relative viability < 0.9). Particulars: 10 µM.
The test system of the next assay is S. aureus RN4220. Put plainly: growth inhibition call (relative growth <= 0.2). The following applies: 50 µM.

As for `O=C(CCCN1CC=C(n2c(=O)[nH]c3ccccc32)CC1)c1ccc(F)cc1`, the cytotoxicity call in the assay on HSkMC and in the assay with HepG2 was “inactive” each time. Also, the growth inhibition call in the assay with S. aureus RN4220 is “inactive”.
As to `O=C(C1=C[C@H](c2ccsc2)C[C@H](OCCCCO)O1)N1CCN(Cc2ccc3c(c2)OCO3)CC1`, the cytotoxicity call in the assay with HSkMC and in the assay on HepG2 was “inactive” throughout. Moreover, the growth inhibition call in the assay on S. aureus RN4220 was “inactive”.
For `COc1ccc(NC(=O)Nc2ccc3c(c2)C(=O)N([C@@H](C)CO)C[C@H](C)[C@H](CN(C)C(=O)NC2CCCCC2)OCCCC[C@@H](C)O3)cc1`, the cytotoxicity call with HSkMC and with HepG2 was “inactive” in each case. The growth inhibition call in the assay with S. aureus RN4220 was “inactive”.
On to `CCS(=O)(=O)N1C[C@]2(CCN(CC2)S(=O)(=O)c2cn(cn2)C)c2c([nH]c3cc(ccc23)OC)[C@H]1CO`, for which the cytotoxicity call in the assay with HSkMC and in the assay with HepG2 was “inactive” each time. Moreover, the growth inhibition call in the assay on S. aureus RN4220 is “inactive”.
As to `C[C@H](CO)N1C[C@H](C)[C@@H](CN(C)C(=O)CN(C)C)Oc2cc(C#CCC3CCCC3)ccc2S1(=O)=O`, the cytotoxicity call in the assay with HSkMC and in the assay with HepG2 was “inactive” throughout. Further, the growth inhibition call with S. aureus RN4220 is “inactive”.
Regarding `C[C@H](CO)N1C[C@H](C)[C@@H](CN(C)Cc2ccc(Cl)c(Cl)c2)Oc2ccc(NS(=O)(=O)c3ccccc3)cc2C1=O`, the cytotoxicity call with HSkMC and with HepG2 was “inactive” each time. For the same molecule, the growth inhibition call with S. aureus RN4220 was “inactive”.
Turning to `C[C@H](CO)N1C[C@H](C)[C@H](CN(C)C(=O)Nc2ccc(C(F)(F)F)cc2)Oc2ccc(NC(=O)CCCCCC(=O)Nc3ccccc3N)cc2C1=O`, the cytotoxicity call in the assay with HSkMC is “inactive”. Besides, the cytotoxicity call in the assay with HepG2 is “active”. The growth inhibition call with S. aureus RN4220 is “inactive”.
On to `COCC#Cc1cnc2c(c1)C(=O)N([C@H](C)CO)C[C@@H](C)[C@@H](CN(C)C(=O)c1cnccn1)O2`, for which the cytotoxicity call in the assay on HSkMC and in the assay on HepG2 was “inactive” each time. Further, in the assay on S. aureus RN4220, the growth inhibition call is “inactive”.
On to `C[C@H]1CN([C@@H](C)CO)C(=O)c2cccc(NC(=O)CCCCCC(=O)Nc3ccccc3N)c2O[C@H]1CN(C)C(=O)Nc1ccc(F)cc1`, for which the cytotoxicity call in the assay on HSkMC and in the assay with HepG2 was “inactive” in each case. Further, the growth inhibition call in the assay with S. aureus RN4220 is “inactive”.
Turning to `C[C@@H]1CN([C@H](C)CO)C(=O)CCCn2nncc2CO[C@@H]1CN(C)C(=O)Nc1ccc(N2CCCCC2)cc1`, the cytotoxicity call in the assay with HSkMC and in the assay with HepG2 was “inactive” in each case. For the same molecule, the growth inhibition call in the assay on S. aureus RN4220 is “inactive”.
Turning to `O=c1cc[nH]c(=S)[nH]1`, the cytotoxicity call in the assay on HSkMC and in the assay on HepG2 was “inactive” throughout. Further, in the assay on S. aureus RN4220, the growth inhibition call is “inactive”.
With `C[C@@H]1CCC[C@H](C)N1c1nn(C)c(=O)[nH]1`, the cytotoxicity call with HSkMC and in the assay with HepG2 was “inactive” throughout. For the same molecule, the growth inhibition call in the assay with S. aureus RN4220 was “inactive”.
For the molecule `C[C@H]1CN([C@@H](C)CO)C(=O)c2cccc(NC(=O)Nc3ccc(F)cc3)c2O[C@H]1CN(C)Cc1ccc(Cl)c(Cl)c1`, the cytotoxicity call in the assay on HSkMC and with HepG2 was “inactive” throughout. Further, the growth inhibition call in the assay on S. aureus RN4220 is “inactive”.
On to `C[C@@H]1CN([C@H](C)CO)S(=O)(=O)c2ccc(C#CC3(O)CCCC3)cc2O[C@H]1CN(C)C(=O)Cc1ccncc1`, for which the cytotoxicity call in the assay with HSkMC and in the assay on HepG2 was “inactive” throughout. In addition, in the assay on S. aureus RN4220, the growth inhibition call is “inactive”.
For the molecule `C[C@@H]1CN([C@H](C)CO)C(=O)Cc2cc(NC(=O)C3CC3)ccc2O[C@H]1CN(C)S(=O)(=O)c1ccc(Cl)cc1`, the cytotoxicity call with HSkMC and in the assay on HepG2 was “inactive” each time. Also, the growth inhibition call in the assay with S. aureus RN4220 was “inactive”.
As to `CO[C@H]1C[C@@H](C[C@@H](C)[C@H]2CC(=O)[C@@H](C)/C=C(\C)[C@@H](O)[C@@H](OC)C(=O)[C@@H](C)C[C@@H](C)/C=C/C=C/C=C(\C)[C@H](OC)C[C@H]3CC[C@@H](C)[C@@](O)(O3)C(=O)C(=O)N3CCCC[C@@H]3C(=O)O2)CC[C@@H]1O`, the cytotoxicity call with HSkMC and in the assay on HepG2 was “inactive” throughout. In the assay with S. aureus RN4220, the growth inhibition call was “inactive”.
For `Cc1noc(C)c1NC(=O)N(C)C[C@H]1Oc2ccc(NS(=O)(=O)c3cccs3)cc2CC(=O)N([C@H](C)CO)C[C@H]1C`, the cytotoxicity call with HSkMC and with HepG2 was “inactive” each time. The growth inhibition call in the assay on S. aureus RN4220 was “inactive”.
In the case of `C[C@@H]1CN([C@@H](C)CO)C(=O)c2cc(NC(=O)Cc3ccccc3)ccc2O[C@@H](C)CCCCO[C@@H]1CN(C)C(=O)c1ccccc1`, the cytotoxicity call in the assay on HSkMC and with HepG2 was “inactive” throughout. In the assay on S. aureus RN4220, the growth inhibition call was “inactive”.
Consider `Cc1noc(C)c1NC(=O)Nc1ccc2c(c1)CC(=O)N([C@H](C)CO)C[C@@H](C)[C@@H](CN(C)C(=O)Nc1ccc(C(F)(F)F)cc1)O2`, for which the cytotoxicity call in the assay on HSkMC and in the assay with HepG2 was “inactive” each time. Moreover, the growth inhibition call in the assay with S. aureus RN4220 is “inactive”.
For the molecule `Cc1ccc(-c2cnc3c(c2)C(=O)N([C@H](C)CO)C[C@@H](C)[C@@H](CN(C)C(=O)Cc2ccncc2)O3)cc1`, the cytotoxicity call in the assay on HSkMC and with HepG2 was “inactive” each time. Moreover, the growth inhibition call in the assay on S. aureus RN4220 was “inactive”.
As for `CO[C@H]1CN(C)C(=O)c2ccc(NC(=O)Nc3ccccc3)cc2OC[C@@H](C)N(C(=O)CN(C)C)C[C@H]1C`, the cytotoxicity call in the assay on HSkMC (human skeletal muscle cells) and with HepG2 was “inactive” each time. The growth inhibition call with S. aureus RN4220 is “inactive”.
In the case of `CO[C@@H](CN(C)C(=O)c1ccc2c(c1)OCO2)[C@@H](C)CN([C@H](C)CO)S(=O)(=O)c1ccc(C)cc1`, the cytotoxicity call in the assay with HSkMC and in the assay on HepG2 was “inactive” throughout. In addition, in the assay with S. aureus RN4220, the growth inhibition call is “inactive”.
On to `COc1ccc(NC(=O)N(C)C[C@H]2OCCCC[C@H](C)Oc3ccc(NC(=O)C4CCCCC4)cc3C(=O)N([C@@H](C)CO)C[C@H]2C)cc1`, for which the cytotoxicity call in the assay with HSkMC and with HepG2 was “inactive” throughout. In addition, the growth inhibition call in the assay on S. aureus RN4220 was “inactive”.
`COc1ccc(CN(C)C[C@H]2OCCCC[C@@H](C)Oc3ccc(NC(=O)Nc4ccccc4)cc3C(=O)N([C@H](C)CO)C[C@H]2C)cc1`: the cytotoxicity call in the assay with HSkMC and with HepG2 was “active” each time. For the same molecule, in the assay on S. aureus RN4220, the growth inhibition call is “inactive”.
Take `C[C@@H]1CCCCO[C@H](CN(C)Cc2ccncc2)[C@H](C)CN([C@H](C)CO)C(=O)c2cc(NS(C)(=O)=O)ccc2O1`: the cytotoxicity call in the assay with HSkMC and in the assay on HepG2 was “inactive” throughout. Moreover, the growth inhibition call in the assay with S. aureus RN4220 is “inactive”.
Turning to `O=C(CCCCCC(=O)N/N=C/[C@H](O)[C@H](O)[C@@H](O)[C@@H](O)CO)NO`, the cytotoxicity call in the assay with HSkMC and in the assay on HepG2 was “inactive” throughout. Also, in the assay on S. aureus RN4220, the growth inhibition call was “inactive”.

Values taken from the antibiotic and cytotoxicity screens of Wong et al. (2023).
